# Laboratory results: paper PMC4336329 (PLoS ONE, 2015)
# About 14,000 (4.5%) of roughly 310,000 compounds showed an effect of 50% or more. Effects have a minus sign here. This is one part of the list.
# Molecular target: human ether-à-go-go-related gene (hERG) potassium channel (human, UniProt Q12809)
# Assay: primary screen, population patch clamp on CHO cells stably expressing hERG
# 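Note: peak tail current of the secondary pulse compared with the same well before compound.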
# Sequence of human ether-à-go-go-related gene (hERG) potassium channel (Q12809 whole entry, looked up): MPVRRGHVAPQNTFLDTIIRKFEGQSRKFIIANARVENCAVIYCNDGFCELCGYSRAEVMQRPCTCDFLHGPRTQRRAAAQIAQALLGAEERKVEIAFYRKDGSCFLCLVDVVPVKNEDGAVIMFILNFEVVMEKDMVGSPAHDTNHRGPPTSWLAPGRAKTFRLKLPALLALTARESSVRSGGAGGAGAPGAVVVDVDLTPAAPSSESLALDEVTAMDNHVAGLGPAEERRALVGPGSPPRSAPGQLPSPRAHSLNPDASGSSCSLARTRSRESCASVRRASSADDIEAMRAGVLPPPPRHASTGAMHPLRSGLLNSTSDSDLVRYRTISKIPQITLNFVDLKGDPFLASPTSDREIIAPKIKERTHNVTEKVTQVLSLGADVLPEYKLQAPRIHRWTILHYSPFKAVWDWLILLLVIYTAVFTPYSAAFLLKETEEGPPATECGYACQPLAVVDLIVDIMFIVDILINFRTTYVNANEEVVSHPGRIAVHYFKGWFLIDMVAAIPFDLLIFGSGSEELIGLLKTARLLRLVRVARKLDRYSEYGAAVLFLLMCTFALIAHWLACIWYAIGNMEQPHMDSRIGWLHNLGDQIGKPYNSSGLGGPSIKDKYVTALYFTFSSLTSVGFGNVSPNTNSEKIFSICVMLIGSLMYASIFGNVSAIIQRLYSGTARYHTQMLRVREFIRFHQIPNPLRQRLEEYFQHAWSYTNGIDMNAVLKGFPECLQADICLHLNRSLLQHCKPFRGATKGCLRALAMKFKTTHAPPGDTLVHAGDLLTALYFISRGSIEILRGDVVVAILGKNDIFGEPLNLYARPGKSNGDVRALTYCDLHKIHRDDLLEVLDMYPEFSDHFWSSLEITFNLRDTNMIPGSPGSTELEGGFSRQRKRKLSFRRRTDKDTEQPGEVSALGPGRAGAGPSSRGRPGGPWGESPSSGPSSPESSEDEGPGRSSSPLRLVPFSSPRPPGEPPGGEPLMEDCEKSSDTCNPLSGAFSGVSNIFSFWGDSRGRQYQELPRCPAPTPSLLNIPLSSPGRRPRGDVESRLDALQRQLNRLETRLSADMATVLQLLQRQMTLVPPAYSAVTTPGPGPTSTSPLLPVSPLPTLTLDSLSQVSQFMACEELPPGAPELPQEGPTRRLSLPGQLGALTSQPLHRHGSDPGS
row,SMILES,"hERG current change (%, negative = inhibition) at 10uM"
1,COc1cc2c(cc1OC)CN(C(=O)CSc1nc3[nH]ncc3c(=O)n1-c1ccccc1)CC2,-17.3%
2,COc1cccc(C2=CC(=O)C[C@H](c3ccc(OC)c(OC)c3)C2)c1,-40%
3,CCOc1cc(Br)c(/C=C2/C(=O)N(C)C(=S)N2CC(=O)OC)cc1OC,4.94%
4,CC(=O)c1c(C)[nH]c(C(=O)NCC2CCCCC2)c1C,-4.62%
5,Cc1nc(N2CCN(c3ccccn3)CC2)c2c(C)c(C(=O)Nc3ccc(Br)cc3C)sc2n1,11.6%
6,CCn1c(N2CCN(C(=O)C34CC5CC(CC(C5)C3)C4)CC2)nc2ccccc21,-37.9%
7,CN1/C(=C\C(=O)C[n+]2ccc(C(=O)c3ccccc3)cc2)C(C)(C)c2ccccc21.[Cl-],2.61%
8,CCOc1ccccc1NC(=O)CSc1nc(=O)n(CCCN2CCOCC2)c2c1CCC2,-26.4%
9,CC(C)CCCC(C)NC(=O)c1cc(S(=O)(=O)N2CCCCC2)ccc1N1CCOCC1 (stereo not shown),-36.8%
10,Cc1cccc2cc(CN(CC3CCCO3)C(=O)NC3CCCCC3)c(=O)[nH]c12 (stereo not shown),-9.99%
11,Cc1ccc(C)c(N2N=C(C(=O)N(CC(C)C)c3c(N)n(Cc4ccccc4)c(=O)[nH]c3=O)CCC2=O)c1,13.6%
12,CCn1c(=O)n(CC)c2cc(N3CCCC3)c(NC(=O)c3ccc(C)cc3)cc21,1.24%
13,COc1ccccc1C(=O)NCCSCc1ccccc1Cl,-15.4%
14,CCN1CCN(C(=O)c2ccccc2NC(=O)c2ccc(Cl)cc2)CC1,-45.8%
15,COc1cccc(NC(=O)COc2c(F)c(F)c(C(F)(F)F)c(F)c2F)c1,8.02%
16,CCN1C(=O)/C(=C/C=C2/Sc3ccccc3N2CCO)SC1=S,15.3%
17,CCc1ccc(-c2nn(Cc3ccccc3)cc2/C=C/C(=O)O)cc1,17.9%
18,COC(=O)CSc1nc2cc(C)ccc2cc1C#N,19.1%
19,Cc1ccc(C)c(NC(=O)CCC(=O)N/N=C/c2cc([N+](=O)[O-])ccc2O)c1,-26.2%
20,O=C(O)c1ccc(-n2cccn2)nc1,14.2%
21,Cc1ccc2cc3cc(C(=O)NCCN4CCOCC4)oc3nc2c1,-14.5%
22,CC(Sc1ncnc2sc(-c3ccccc3)cc12)C(N)=O (stereo not shown),11.7%

row,SMILES,"hERG current change (%, negative = inhibition) at 10uM"
1,COc1cccc(C(=O)Nc2sc3c(c2C(=O)O)CCCC3)c1,32%
2,Cc1cc(C)cc(-n2c(C)cc(/C=N/NC(=O)c3cccc([N+](=O)[O-])c3C)c2C)c1,15.8%
3,COc1ccc(-n2c(N)c(C(=O)NCc3ccco3)c3nc4ccccc4nc32)c(OC)c1,0.913%
4,C/C(=N\Nc1ccc(C#N)cc1[N+](=O)[O-])c1ccc(C)o1,-7.4%
5,Cc1ccc(NC(=O)N2CCCc3ccccc32)cc1C,-29.2%
6,COc1ccc(S(=O)(=O)N2CCOCC2)cc1NC(=O)C1CCCN1C(=O)c1cccs1 (stereo not shown),-3.94%
7,CCCC(C)C(=O)Nc1cccc(NC(C)=O)c1 (stereo not shown),5.4%
8,CCOC(=O)C1C(=O)NC(SCC(=O)OC)=C(C#N)C1c1ccccc1OCC (stereo not shown),-15.8%
9,O=C(CCc1ccccc1)N=C1SC2CS(=O)(=O)CC2N1c1ccccc1 (stereo not shown),5.51%
10,COc1ccc(OCCn2c(N)nc3ccccc32)cc1,-67.4%
11,O=C(CSc1nnc(NC(=O)C2CC(=O)N(c3ccc(F)cc3)C2)s1)NCc1ccco1 (stereo not shown),6.11%
12,CN(C)S(=O)(=O)c1cccc(NC(=O)c2ccncc2)c1,-17.6%
13,CCOC(=O)c1c(CSc2cccs2)n(C)c2cc(Br)c(O)c(CN(C)C)c12.Cl,-68.3%
14,O=S(=O)(c1ccc(Cl)nc1)N1CCCCC1,-1.17%
15,COCCNc1nc(NCc2ccccc2)c2cnn(C)c2n1,10.1%
16,CCOCCn1c(SCC(=O)OCc2ccccc2)nc2c1c(=O)[nH]c(=O)n2C,-23.6%
17,COc1ccc(C2=NS(=O)(=O)N(C)C(C(=O)N3CCOCC3)=C2)cc1,-13%
18,CCOc1ccc(CSC2=NCCN2)cc1[N+](=O)[O-].Cl,-83.5%
19,Nc1c(C(=O)NC2CCCC2)sc2nc(-c3cccs3)ccc12,16.3%
20,CCN(C(=O)CCN1C(=O)c2ccccc2S1(=O)=O)c1ccccc1,-16.6%
21,Cc1nc(Cl)sc1C(=O)NC(C)c1ccc(Cl)cc1 (stereo not shown),-3.56%
22,NS(=O)(=O)c1ccc(N2CCCC2=O)c([N+](=O)[O-])c1,17.4%

row,SMILES,"hERG current change (%, negative = inhibition) at 10uM"
1,COc1cc(/C=C2\C(=O)N(c3ccccc3)N=C2C)ccc1Oc1ccc([N+](=O)[O-])cc1[N+](=O)[O-],25.9%
2,Cc1ccc(CNC(=O)c2ccc3c(c2)S(=O)(=O)c2ccccc2C3=O)o1,-12.2%
3,CCOc1ccccc1Nc1nnc(Cc2ccccc2Cl)c(=O)[nH]1,-2.71%
4,Cc1occc1-c1nnc(-c2cc([N+](=O)[O-])cc([N+](=O)[O-])c2)o1,-6.12%
5,Cc1nc(C(=O)Nc2ccc(Cl)cc2Cl)nn1-c1cc(OC(C)C)c(Cl)cc1Cl,9.62%
6,Cn1cc(Br)c(NS(=O)(=O)c2ccc(Cl)s2)n1,3.37%
7,O=C1c2cccc3cccc(c23)C(=O)N1c1cccc(O)c1,17.3%
8,CC(=O)c1c(C)[nH]c(C(=O)OCc2nnc(-c3ccccc3)o2)c1C,5.33%
9,Cc1ccc(/C=C2\C(=O)NC(=S)N(c3ccccc3F)C2=O)s1,-2.71%
10,CCOC(=O)c1cnc(-n2nc(C)cc2C)nc1NCc1ccc2c(c1)OCO2,2.07%
11,C[C@H]1CCCC(=O)CCC/C=C/c2cc(O)cc(O)c2C(=O)O1,1.43%
12,CN(C)/C=C/C(=O)c1cnc(-c2cccc(Cl)c2)s1,5.97%
13,CCCCCc1nnc(NS(C)(=O)=O)s1,2.81%
14,Cc1ccc(C(=O)N/C(=C/c2ccc(-c3cc(C(F)(F)F)ccc3Cl)o2)C(=O)NCc2cccnc2)cc1,-1.72%
15,O=C(N/N=C\c1ccc(Br)cc1)c1ccc(Cn2cccn2)o1,-34.1%
16,COC(=O)Cn1c(=NC(=O)c2cc(-c3cccs3)nc3ccccc23)sc2cc(S(N)(=O)=O)ccc21,9.14%
17,COc1ccc(CCN=C(N)NS(=O)(=O)c2cc(F)ccc2OC)cc1,12.4%
18,CC(C)NC(=S)N1CCC(Cc2ccccc2)CC1,-2.26%
19,COc1ccc(CN2CCCCC2C(=O)Nc2ccc(OC)c(OCC(C)C)c2)cc1OC (stereo not shown),0.345%
20,CCN(CC(=O)Nc1ccc2c(c1)OCCO2)C(=O)CN1C(=O)NC(C)(c2ccc(C)cc2)C1=O (stereo not shown),-18%
21,O=C(Cn1nnc2c(cnn2-c2ccccc2)c1=O)N1CCN(c2ccccc2F)CC1,-20.5%
22,CC(=O)c1ccc(S(=O)(=O)N2CCN(c3nc(-c4cccnc4)nc4ccccc34)CC2)cc1,-40.4%

row,SMILES,"hERG current change (%, negative = inhibition) at 10uM"
1,Cc1cccc(NC(=S)Nc2ccc3cn[nH]c3c2)c1,1.96%
2,CC12c3ccccc3C(c3ccccc31)C1C(=O)N(Cc3cccnc3)C(=O)[C@H]12 (stereo partly shown),-15.6%
3,Cc1ccccc1CN1CCNC(=O)C1CC(=O)NC1CCCCCCC1 (stereo not shown),-4.98%
4,Cc1ccc(C(=O)NCCN2CCNC2=O)cc1,12.9%
5,O=C(NC1(C(F)(F)F)N=C2SCCN2C1=O)c1cccnc1 (stereo not shown),15.7%
6,CCOc1ccc(C(=O)NC(=S)Nc2cccnc2)cc1,4.34%
7,Cc1cc(NC(=O)CC#N)n(-c2nc3ccccc3[nH]2)n1,0.562%
8,CC(=O)Oc1ccc2nc(CN3C(=O)c4ccc([N+](=O)[O-])cc4C3=O)oc(=O)c2c1,10%
9,O=C(OC(C(=O)NCc1ccco1)C(OC(=O)c1ccccc1)C(=O)NCc1ccco1)c1ccccc1 (stereo not shown),-0.223%
10,O=C(CCCN1C(=O)/C(=C/c2cccs2)SC1=S)NNC(=O)c1ccncc1,10.4%
11,CCCc1cc(=O)[nH]c(SCC(=O)N(CC)C2CCS(=O)(=O)C2)n1 (stereo not shown),13.2%
12,FC(F)(F)c1nnc(-c2ccccc2)nc1Oc1ccccc1,12.9%
13,COc1ccc([N+](=O)[O-])cc1NS(=O)(=O)c1ccc(Cl)c(C(=O)Nc2sc3c(c2C#N)CCCCC3)c1,26.7%
14,O=C(NCC1OCCc2ccccc21)c1ccco1 (stereo not shown),5.85%
15,O=C(Nc1ncccn1)c1cc(-c2cccc(Br)c2)nc2ccccc12,-5.26%
16,COc1ccccc1OCc1ccc(C(=O)c2ccccc2)cc1,17.1%
17,CCSc1nc(N2CCOCC2)c2ccccc2n1,-28.9%
18,COc1ccc(-c2csc(N3CCN(C(=O)c4ccccc4)CC3)n2)cc1,13.1%
19,Cc1c(Cl)c(-c2n[nH]c(=S)n2-c2ccc(F)cc2)nn1C,14.1%
